These results are taken from the supplement of paper PMC3334620.

Whole data set: some 33,000 sequences, median “E-score (-0.5 to 0.5)” near -0.053, cut for the highest 2% near 0.37. Some of the results follow.

In the assay the target is Hap1 (UniProt P0CE41). Description: PBM E-score (8-mer binding enrichment) (E-score (-0.5 to 0.5)); higher = stronger / more preferred TF binding; most listed sequences are background and not binding sites. The settings on record: protein concentration: 200 nM; construct: GST-DNA-binding domain. The procedure, abridged: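 Each ungapped eight-base word and its reverse complement, pooled, received an E-score from the Universal PBM Analysis Suite. Underlying scans, normalised with masliner, recorded fluorescent anti-GST bound to GST-tagged yeast transcription factors. These were applied at about 100-200 nM to universal all-10-mer Agilent arrays double-stranded by primer extension.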
Sequence of UniProt P0CE41 (P0CE41 whole entry, the tested form may be a part): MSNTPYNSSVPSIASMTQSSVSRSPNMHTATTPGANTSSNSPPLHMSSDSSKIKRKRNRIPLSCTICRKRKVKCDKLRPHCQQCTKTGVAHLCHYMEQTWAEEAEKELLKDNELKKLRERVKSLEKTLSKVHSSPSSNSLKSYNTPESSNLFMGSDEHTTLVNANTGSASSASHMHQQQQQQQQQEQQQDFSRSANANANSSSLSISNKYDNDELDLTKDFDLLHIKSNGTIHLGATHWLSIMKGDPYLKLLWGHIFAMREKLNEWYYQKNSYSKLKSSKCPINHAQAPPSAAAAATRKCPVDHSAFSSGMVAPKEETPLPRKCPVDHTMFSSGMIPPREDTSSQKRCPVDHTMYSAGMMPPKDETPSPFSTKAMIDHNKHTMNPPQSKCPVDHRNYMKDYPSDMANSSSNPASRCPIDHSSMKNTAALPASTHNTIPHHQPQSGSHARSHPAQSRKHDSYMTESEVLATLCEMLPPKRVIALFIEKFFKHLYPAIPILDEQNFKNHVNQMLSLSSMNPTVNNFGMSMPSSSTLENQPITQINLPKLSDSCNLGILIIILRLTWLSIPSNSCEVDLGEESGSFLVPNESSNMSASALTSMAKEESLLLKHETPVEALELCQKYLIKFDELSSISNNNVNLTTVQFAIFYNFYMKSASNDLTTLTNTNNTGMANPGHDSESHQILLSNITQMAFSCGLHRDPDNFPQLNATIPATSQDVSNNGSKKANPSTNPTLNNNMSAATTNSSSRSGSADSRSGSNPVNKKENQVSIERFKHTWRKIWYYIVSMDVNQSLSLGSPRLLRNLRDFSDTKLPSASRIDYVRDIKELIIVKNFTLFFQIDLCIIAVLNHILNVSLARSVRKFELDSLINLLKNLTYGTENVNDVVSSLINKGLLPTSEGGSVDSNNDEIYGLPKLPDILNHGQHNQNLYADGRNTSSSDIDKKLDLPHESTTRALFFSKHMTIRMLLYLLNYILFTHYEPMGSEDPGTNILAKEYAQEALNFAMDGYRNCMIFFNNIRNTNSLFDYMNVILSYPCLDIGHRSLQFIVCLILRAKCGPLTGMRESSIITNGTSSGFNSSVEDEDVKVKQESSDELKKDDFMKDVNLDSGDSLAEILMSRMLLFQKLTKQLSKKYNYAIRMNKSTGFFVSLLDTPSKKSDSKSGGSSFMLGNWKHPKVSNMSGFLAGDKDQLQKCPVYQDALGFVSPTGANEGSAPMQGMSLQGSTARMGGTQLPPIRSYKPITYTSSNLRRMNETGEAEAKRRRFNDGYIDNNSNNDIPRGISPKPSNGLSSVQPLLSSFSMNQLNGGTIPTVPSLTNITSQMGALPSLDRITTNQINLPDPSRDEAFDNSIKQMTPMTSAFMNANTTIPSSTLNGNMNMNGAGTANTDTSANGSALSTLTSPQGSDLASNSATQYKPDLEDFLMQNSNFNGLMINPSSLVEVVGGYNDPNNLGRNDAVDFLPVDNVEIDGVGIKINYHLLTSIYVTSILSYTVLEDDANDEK
With CACTGGGG, the “PBM E-score” value was -0.126.
Then CAGACAAA, with -0.185; and GCGTCGTA, with 0.102; and CCTGCAGA, with 0.00922.
As for AACCGCCC, the figure is 0.0175.
In the case of CACAATGC, the “PBM E-score” value is -0.0342.
As for GGCACCCA, the figure is -0.186.
Then CTACACAA, with -0.191; and ATAGCCGG, with 0.397.
Take CCTCCATA: the “PBM E-score” value was -0.142.
Then CGCTCCCA, with -0.0634.
As for CCTAACTA, the figure is -0.0142; as for CGAGTTAG, -0.0583; as for GACAGGGA, -0.17.
AAAGCGTT: the “PBM E-score” value is -0.234.
For CCCGTAGG, the “PBM E-score” value was -0.158.
Then AAGTTGCC, with 0.0953.
Turning to AAGGCTCA, the “PBM E-score” value is -0.159.
Then ATGGCCCG, with 0.291; and TACTCTAA, with -0.0945.
In the case of CATTCGTA, the “PBM E-score” value is -0.185.
Regarding AGGGGTCA, the “PBM E-score” value is -0.246.
Then ACATCATG, with -0.165; and GCTGACAC, with -0.154.
Then AGCGGGGG, with 0.0616; and CAGGCGAA, with -0.193.
As for AATAGTAA, the figure is -0.112; as for CGGCGAGC, 0.266; as for GCGATAAA, 0.258.
ACTGGGAG: the “PBM E-score” value is -0.0791.
Then AGGCACTG, with -0.128.
As for CGAAGACA, the figure is 0.151; as for CCTGCAAG, -0.234.
For the sequence TGACGGAA, the “PBM E-score” value was 0.241.
Turning to AGAGCCCT, the “PBM E-score” value is -0.291.
Regarding AACGCGCT, the “PBM E-score” value was found to be 0.139.
Take GCAAATTA: the “PBM E-score” value stood at 0.163.
As for CCACTGGC, the figure is -0.0966.
Consider CACGGCTA, for which the “PBM E-score” value was 0.0584.
Then CTATGACC, with 0.0283.
Then TCGGACCA, with 0.381; and AACTATCG, with 0.159; and GCGAGATA, with 0.148.
Then ACGAGAGC, with -0.0925; and ACTAGCTA, with -0.162; and AGGGCTAA, with -0.2.
As for AGTTACTA, the “PBM E-score” value is -0.128.
CGATCAAG: the “PBM E-score” value is 0.0595.
As for GACTAGGA, the figure is -0.104.
Then CTGGCCTA, with -0.168; and GAGCAACA, with -0.0395.
On to AGTTCTTC, for which the “PBM E-score” value was -0.111.
Then ACTACACG, with -0.185; and ATCTTTTG, with -0.072.
Regarding CGCTTCAA, the “PBM E-score” value was determined as 0.0807.
As for CCTTTCGA, the figure is 0.00181; as for GCGCTTTA, 0.133.
Consider GAAAGGCC, for which the “PBM E-score” value was 0.22.
Then GGGAACCA, with -0.215; and CTGGTACA, with -0.27; and GGGGACTA, with -0.0608.
As for CAAAACAG, the figure is -0.175; as for GATTCCCC, 0.0251.
For the sequence AACTGTTG, the “PBM E-score” value was -0.252.
In the case of GAAGTCGA, the “PBM E-score” value is -0.0469.
As for ATGGTTTG, the “PBM E-score” value is 0.0601.
Then ATAGCAGA, with -0.21; and AAGCCGCA, with 0.116; and AGCCAAGC, with -0.173.
As for GCTCTCAA, the figure is -0.196; as for TGCTCCCA, -0.192.
Turning to GGGTGCCA, the “PBM E-score” value was -0.0389.
As for CTAGGTCC, the figure is 0.22.
Then AGCCACCG, with 0.179; and GCGACAGA, with 0.038; and GAACACCC, with 0.0895.
As for AGGTAAAA, the figure is -0.117; as for TTGTACAA, -0.27.
In the case of AATCTTTG, the “PBM E-score” value was -0.203.
On to GCAGCTGA, for which the “PBM E-score” value was -0.0954.
In the case of CTACAAAA, the “PBM E-score” value amounted to 0.0116.
As for AGTAAAGA, the figure is 0.0858.
As for AATTTATC, the figure is 0.255; as for ACCTGGAC, -0.164.
Regarding CTAGATAC, the “PBM E-score” value was determined as 0.102.
Take AATCGGAG: the “PBM E-score” value came to 0.359.
As for CAAGACAA, the figure is -0.0427.
Then AAAACTAT, with 0.0628.
As for CCTAGGCA, the figure is -0.136; as for ACGTTAGC, -0.0972; as for ATGTACTG, -0.148.
As to CAGTAAAC, the “PBM E-score” value was found to be 0.00777.
Then ACGGCTCC, with 0.212; and CTCAGGTA, with -0.283; and ATTAATAC, with 0.0497.
On to GAGGCCTC, for which the “PBM E-score” value was -0.0587.
Then ACAACGAC, with -0.0123.
As for CGGTACCA, the figure is 0.213; as for CTTTACGA, -0.162; as for ATATTAAA, 0.1.
Turning to AAAAAGGA, the “PBM E-score” value is -0.0699.
As for TGTTAAAA, the “PBM E-score” value is -0.143.
Turning to CCTGAAGC, the “PBM E-score” value is -0.298.
As for ACGCAGGC, the figure is -0.051; as for AAGTCCTG, -0.0784.
In the case of TAAGGTGA, the “PBM E-score” value is -0.054.
Then CGAAGTAG, with 0.128; and CTCGTAAG, with -0.0457; and GCATGTAC, with -0.0721.
Turning to GGTGAGCA, the “PBM E-score” value is -0.228.
